Measured values as given in PMC4336329 (PLoS ONE, 2015).
Screen size: about 310,000 compounds; about 2,200 (0.71%) showed an effect of 50% or more. Effects have a minus sign here. This is one part of the list.

target: human ether-à-go-go-related gene (hERG) potassium channel (human, UniProt Q12809); assay: primary screen, population patch clamp on CHO cells stably expressing hERG
Sequence (Q12809 whole entry, looked up): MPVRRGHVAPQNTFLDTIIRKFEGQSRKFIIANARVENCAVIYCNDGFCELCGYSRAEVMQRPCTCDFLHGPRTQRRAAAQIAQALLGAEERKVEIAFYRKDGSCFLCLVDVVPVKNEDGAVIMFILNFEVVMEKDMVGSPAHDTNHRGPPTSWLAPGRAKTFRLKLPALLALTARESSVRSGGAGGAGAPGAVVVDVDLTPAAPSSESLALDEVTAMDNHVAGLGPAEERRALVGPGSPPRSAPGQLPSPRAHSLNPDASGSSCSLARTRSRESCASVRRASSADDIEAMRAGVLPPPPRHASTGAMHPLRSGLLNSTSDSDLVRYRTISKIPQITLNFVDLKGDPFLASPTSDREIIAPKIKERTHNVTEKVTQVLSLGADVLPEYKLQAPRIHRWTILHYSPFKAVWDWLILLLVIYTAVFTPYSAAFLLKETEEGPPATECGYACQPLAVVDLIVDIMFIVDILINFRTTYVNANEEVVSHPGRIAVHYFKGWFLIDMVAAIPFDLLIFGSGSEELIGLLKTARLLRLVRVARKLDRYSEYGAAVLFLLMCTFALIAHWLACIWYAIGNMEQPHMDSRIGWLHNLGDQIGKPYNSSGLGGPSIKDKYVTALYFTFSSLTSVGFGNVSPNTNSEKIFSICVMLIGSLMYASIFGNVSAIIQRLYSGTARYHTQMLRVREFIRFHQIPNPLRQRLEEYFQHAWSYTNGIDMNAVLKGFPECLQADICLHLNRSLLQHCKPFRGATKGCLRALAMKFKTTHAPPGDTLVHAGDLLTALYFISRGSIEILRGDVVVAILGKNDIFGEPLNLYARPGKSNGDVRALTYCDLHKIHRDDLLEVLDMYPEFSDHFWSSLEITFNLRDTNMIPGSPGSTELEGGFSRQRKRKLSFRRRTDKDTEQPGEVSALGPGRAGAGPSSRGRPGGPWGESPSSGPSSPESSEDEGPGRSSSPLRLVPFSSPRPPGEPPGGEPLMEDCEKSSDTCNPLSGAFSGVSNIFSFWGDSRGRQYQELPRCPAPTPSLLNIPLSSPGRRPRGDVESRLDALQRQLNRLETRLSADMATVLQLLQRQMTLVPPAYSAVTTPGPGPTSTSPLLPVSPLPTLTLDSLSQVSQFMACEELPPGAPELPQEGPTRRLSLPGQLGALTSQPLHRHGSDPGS

Which “hERG current change (%, negative = inhibition) at 1uM” value does the source give for `COc1cccc2c1OCC([C@@H]1C[C@H]3CN(Cc4cccc(Cl)c4)C(=O)[C@]34CCCN14)=C2` here?
Its value is -1.56%.

Which “hERG current change (%, negative = inhibition) at 1uM” value does the source give for `CCOC(=O)C[C@H]1c2ccccc2S(=O)(=O)N1c1ccccc1` here?
The value was 14.3%.

`CN(C)C(=O)c1ccc(NC(=O)c2sccc2-c2ccccc2)cc1` was tested. Which “hERG current change (%, negative = inhibition) at 1uM” value did it give?
Its value is 9.11%.

With `O=C(Cn1cnc2c(nnn2Cc2ccc(F)cc2)c1=O)OCc1ccccc1` as the compound, how does the “hERG current change (%, negative = inhibition) at 1uM” value read?
Its value is 6.54%.

With `CCCNC(=O)C1(CC2CC(c3ccccc3)=NO2)CCN(C(=O)OC(C)(C)C)CC1` (stereo not shown) as the compound, how does the “hERG current change (%, negative = inhibition) at 1uM” value read?
Its value is -6.42%.

How did the “hERG current change (%, negative = inhibition) at 1uM” value turn out when `COC(=O)c1scc(C)c1NC(=O)C1CCCCC1` was run?
The value was 6.21%.

Which “hERG current change (%, negative = inhibition) at 1uM” value does the source give for `CC1(C)CC2CC(C)(CN2C(=S)NC(=O)c2ccccc2Cl)C1` (stereo not shown) here?
Its value is 5.28%.

With `Cc1cccc(NC(=O)c2cccc(S(=O)(=O)N3CCCC3)c2)n1` as the compound, how does the “hERG current change (%, negative = inhibition) at 1uM” value read?
Its value is 8.94%.

`CN(C(=O)C1CCCC1)C1CCS(=O)(=O)C1` (stereo not shown) was tested. Which “hERG current change (%, negative = inhibition) at 1uM” value did it give?
Its value is 8.21%.

`Cc1ccc(C(C(=O)NCc2ccco2)N(C(=O)Cc2cccs2)c2cccnc2)cc1` (stereo not shown) was tested. Which “hERG current change (%, negative = inhibition) at 1uM” value did it give?
Its value is 15.4%.

Which “hERG current change (%, negative = inhibition) at 1uM” value does the source give for `O=C(CSc1ccccc1)Nc1ccccc1C(=O)O` here?
Its value is 8.75%.

`Cc1nc2c(-c3ccccc3)c(C)nn2c(C)c1CCC(=O)N1CCC2(CC1)OCCO2` was tested. Which “hERG current change (%, negative = inhibition) at 1uM” value did it give?
The value was -14.1%.

For `O=C(CN1C(=O)c2ccccc2S1(=O)=O)Nc1ccccc1C(=O)NCc1ccco1`, which “hERG current change (%, negative = inhibition) at 1uM” value is on record?
Its value is 8.6%.

With `O=C(COC(=O)c1cccs1)NCc1cccs1` as the compound, how does the “hERG current change (%, negative = inhibition) at 1uM” value read?
Its value is 17.1%.

Which “hERG current change (%, negative = inhibition) at 1uM” value does the source give for `CC1(OC(=O)C2CCCC2)C(=O)C=C2C=C3CCCCN3C=C2C1=O` (stereo not shown) here?
The value was 17.8%.

For `COc1ccc(/C=N/Nc2ncnc3sc4c(c23)CCCC4)cc1OC`, which “hERG current change (%, negative = inhibition) at 1uM” value is on record?
The value was 7.16%.

How did the “hERG current change (%, negative = inhibition) at 1uM” value turn out when `COC(=O)c1cn(-c2cccc(C)n2)cn1` was run?
The value was 11.5%.

`Cc1cc(C)n(C(=O)CNC(=O)c2ccc(Cl)cc2Cl)n1` was tested. Which “hERG current change (%, negative = inhibition) at 1uM” value did it give?
Its value is 3.96%.

Which “hERG current change (%, negative = inhibition) at 1uM” value does the source give for `CCC1Oc2ccc(C)cc2N(CC(=O)N(Cc2ccncc2)Cc2ccco2)C1=O` (stereo not shown) here?
The value was -5.23%.

`COc1cc(/C=N\NC(=O)c2c(C)nc3cc(C)ccn23)ccc1O` was tested. Which “hERG current change (%, negative = inhibition) at 1uM” value did it give?
The value was 10.1%.

Which “hERG current change (%, negative = inhibition) at 1uM” value does the source give for `O=C(CN1CCCC1)N1CCCc2ccccc21.O=C(O)C(=O)O` here?
Its value is 11%.

Which “hERG current change (%, negative = inhibition) at 1uM” value does the source give for `O=C(O)CCCC(=O)N1CCOCCOCCOCCOCC1` here?
The value was 11.5%.

`COP(=O)(OC)C(Nc1ccccc1)c1ccccc1` (stereo not shown) was tested. Which “hERG current change (%, negative = inhibition) at 1uM” value did it give?
The value was 12.8%.

`C(#CCN1CCOCC1)COCC#Cc1ccccc1.Cl` was tested. Which “hERG current change (%, negative = inhibition) at 1uM” value did it give?
The value was 0.237%.

With `O=C(c1ccc2c(c1)OCO2)N1CCN(S(=O)(=O)c2ccc(Br)cc2Cl)CC1` as the compound, how does the “hERG current change (%, negative = inhibition) at 1uM” value read?
Its value is -10.1%.
